The campaign covered roughly 420,000 compounds. About 64,000 (15%) were called active. Inconclusive results, whose numbers are uncertain, are shown with a selection of clear calls. The call rests on the fitted dose curve; in most records, active means well fitted inhibition curve with a large enough effect; inconclusive means small, poorly fitted or top-dose-only effect; inactive means flat fitted curve, though single readings scatter. Potencies of inconclusive entries are left out as doubtful fits.
Experiment: qHTS for Inhibitors of human tyrosyl-DNA phosphodiesterase 1 (TDP1): qHTS in cells in absence of CPT; further: nearly all actives have a fitted effect of over 55% in size
Details: DT40 Tdp1-/- hTDP1 cells, no CPT, ATP luminescence, 48 h; activity change, negative = growth inhibition: at 46.2 µM (top of the series)
Method in brief: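 Readout: luminescence from CellTiter-Glo after 30 min in the dark at RT. Cells: DT40 Tdp1-/- with stable hTDP1, 400/well. Exposure: compounds alone, ≥48 hr, 37 °C.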
On the % scale 0 is the no-effect control and ±100 the full control effect; potency means the concentration at half of the fitted maximal effect; tags describe the fitted curve by direction and shape.

SMILES | Potency | activity change, negative = growth inhibition
O=C(NCCN1CCOCC1)c1cc(-c2ccc(Cl)cc2Cl)on1 | inconclusive [inhibitor, single point] | –
CCOc1ccc(N(C(=O)CNC(=O)c2ccco2)C(C(=O)NC2CCCC2)c2ccco2)cc1 (centres undefined) | – | inactive: -9.55%
CC(/C=N/n1c(-c2ccco2)n[nH]c1=S)=C\c1ccco1 | – | inactive: 4.25%
CCOc1ccc(NS(=O)(=O)c2ccc(C(=O)NCC3(N(C)C)CCCCC3)cc2)cc1 | inconclusive [inhibitor, single point] | –
Cc1cc2oc(C(=O)Nc3ccc(S(=O)(=O)N4CCC(C)CC4)cc3)cc(=O)c2cc1C | – | inactive: -7.89%
O=C(Cn1cc(C(F)(F)F)ccc1=O)N/N=C/c1ccc(O)cc1 | – | inactive: 7.45%
CC(OC(=O)c1cccc(-n2cnnn2)c1)C(=O)Nc1ccc(F)c(F)c1F (centres undefined) | inconclusive [inhibitor, single point] | –
CC(=O)O[C@@H]1C[C@H]2C(C)(C)C(=O)C=C[C@]2(C)[C@H]2CC[C@@]3(C)[C@H](c4ccoc4)OC(=O)[C@H]4O[C@]43[C@@]21C | inconclusive [inhibitor, single point] | –
OCCNc1nc(Nc2ccccc2)nc(Nc2ccccc2)n1 | – | inactive: -23.2%
Cc1ccc(-n2nc3c(N4CCC(C(=O)NC5CCCCC5)CC4)nnc(C)c3c2C)cc1 | active: 11.6 µM | –
CN(O)/C=N/C(=S)Nc1ccc(Cl)cc1Cl | inconclusive [inhibitor, partial curve] | –
CCOC(=O)c1cc(-c2ccccc2)nc2c1c(C)nn2-c1ccccn1 | inconclusive [inhibitor, single point] | –
Cc1ccc(Cn2c(-n3nc(C)cc3C)nc3c2c(=O)[nH]c(=O)n3C)cc1 | – | inactive: -22.7%
C=CCN(CC=C)S(=O)(=O)c1ccc(NC(=S)NC(=O)/C=C/c2ccc(C)cc2)cc1 | inconclusive [inhibitor, partial curve] | –
CCCCN(C)CCNC(=O)c1ccc(Cn2c(=S)[nH]c3ccc(Br)cc3c2=O)cc1 | inconclusive [inhibitor, single point] | –
Cc1cc(NC(=O)c2cnn3cccnc23)n(-c2ccccc2)n1 | inconclusive [inhibitor, single point] | –
O=C(CSCc1ccc(Cl)cc1)Nc1ccc(S(=O)(=O)N2CCOCC2)cc1 | – | inconclusive: -32.5% [inhibitor]
COc1ccc(-c2ccc(CNCCCSc3nnnn3C)o2)cc1Cl | inconclusive [inhibitor, single point] | –
c1cncc(-c2nc(N3CCOCC3)c3c4c(sc3n2)CCC4)c1 | inconclusive [inhibitor, partial curve] | –
O=C(CSCc1ccccc1)Nc1cc([N+](=O)[O-])ccc1F | – | inconclusive: -31.9% [inhibitor]
O=C(NCc1cccnc1)C1CCCCN1S(=O)(=O)c1ccc(F)cc1 (centres undefined) | – | inactive: -1.59%
Cc1ccc(OCC(=O)N/N=C/c2cc([N+](=O)[O-])ccc2N2CCCCC2)cc1 | inconclusive [inhibitor, single point] | –

SMILES | Potency | activity change, negative = growth inhibition
O=C(CCl)N(O)c1ccc(C=Cc2ccccc2)cc1 | active: 0.206 µM | –
COc1ccccc1NC(=O)CSc1ccc(-c2ccco2)nn1 | inconclusive [inhibitor, partial curve] | –
O=C(O)CSCC(=O)Nc1cccc(C(F)(F)F)c1 | – | inactive: 1.22%
COc1ccc(OC)c(-c2csc(NC(=O)CSc3ccc([N+](=O)[O-])cc3)n2)c1 | active: 16.4 µM | –
S=C(Nc1cccc(Cl)c1)NC1CCCCC1 | – | inactive: -28.5%
O=C(NCCCN1CCN(Cc2ccccc2)CC1)C1CCN(c2nnc(-n3cccc3)s2)CC1 | active: 25.9 µM | –
COc1ccc(NC(=O)Nc2cc3oc4ccccc4c3cc2OC)cc1 | inconclusive [inhibitor, single point] | –
CC(=O)Nc1ccc(C(=O)N2CCCC(c3cc(C(=O)NCc4ccc(F)cc4)no3)C2)cc1 (centres undefined) | inconclusive [inhibitor, partial curve] | –
CC(C)(C)c1nc(-c2ccccc2)nc2c1OCCC2 | inconclusive [inhibitor, single point] | –
CCc1nc2sc3c(c2c(=O)n1NC(=O)CCl)CCCC3 | inconclusive [inhibitor, single point] | –
Cc1cccc(-n2ncc(Cl)c(Cl)c2=O)c1 | active: 4.11 µM | –
COc1ccccc1NC(=O)COC(=O)C1=NN(c2ccccc2)C(=O)CC1 | – | inactive: 10.6%
CC1=C(C(=O)N(C)C)CC(CC(=O)NCCCCc2ccccc2)C(=O)N1CCC1=CCCCC1 (centres undefined) | inconclusive [inhibitor, single point] | –
CCn1cc(C(=O)Nc2ccc3c(c2)OCCO3)c2cc(OC)c(OC)cc2c1=O | inconclusive [inhibitor, single point] | –
O=C(CSc1nnc(-c2c[nH]c3ccccc23)o1)N(Cc1ccccc1)c1ccc(F)cc1 | inconclusive [inhibitor, single point] | –
Cc1ccc(N(C)S(=O)(=O)c2ccc(-c3coc(C)n3)cc2)cc1 | inconclusive [inhibitor, partial curve] | –
CN(C)S(=O)(=O)N1CCC(Oc2ccc(C(=O)NCC(C)(C)CO)cc2)CC1 | inconclusive [inhibitor, single point] | –
COc1cccc(/C=C2\SC(=S)N(CCC(=O)NCCc3ccc(O)cc3)C2=O)c1 | inconclusive [inhibitor, partial curve] | –
COc1ccc(OC)c(Nc2cc(C(=O)NCCCN3CCOCC3)c3ccccc3n2)c1 | active: 23.1 µM | –
COc1ccccc1N1CCN(CCCNC(=O)c2nnc(Cc3ccc(F)cc3Cl)o2)CC1 | inconclusive [inhibitor, single point] | –
NC(=O)N/N=C/c1cc(Br)ccc1OCC(=O)NCc1ccccc1 | inconclusive [inhibitor, single point] | –
Cc1c(N=C2NC(=O)C(CC(=O)Nc3ccc(Cl)cc3)S2)c(=O)n(-c2ccccc2)n1C (centres undefined) | – | inactive: -17.9%
